According to the supplement of paper PMC10681739:
± gives the standard deviation of the averaged measurements. Over roughly 4,100 sequences, “arbitrary fluorescence units” has its median near 780; the highest 2% begin near 22,000. The list shows a part of the results.

molecular target: T1, ETS1 (UniProt P14921); assay: ETS1 binding intensity (PBM fluorescence), ETS1 alone (arbitrary fluorescence units); higher = stronger binding; conditions: ETS1 concentration 1 nM; RUNX1 concentration 0 nM
T1 sequence: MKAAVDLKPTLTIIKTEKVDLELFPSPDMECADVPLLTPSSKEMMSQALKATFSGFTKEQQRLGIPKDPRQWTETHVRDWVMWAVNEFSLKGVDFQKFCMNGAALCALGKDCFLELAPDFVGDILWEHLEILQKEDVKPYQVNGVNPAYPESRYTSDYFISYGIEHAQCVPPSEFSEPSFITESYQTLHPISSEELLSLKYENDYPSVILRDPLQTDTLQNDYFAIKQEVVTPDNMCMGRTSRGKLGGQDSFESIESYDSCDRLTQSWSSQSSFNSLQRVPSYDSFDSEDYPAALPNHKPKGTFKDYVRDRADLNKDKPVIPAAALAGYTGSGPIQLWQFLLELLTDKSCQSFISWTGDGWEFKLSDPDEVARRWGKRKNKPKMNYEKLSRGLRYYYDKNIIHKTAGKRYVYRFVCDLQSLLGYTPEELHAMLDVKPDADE
How it was run: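 Recombinant full-length human ETS1 was applied at 1 nM, without RUNX1, to double-stranded Agilent 4 × 180k arrays of 36-bp genomic probes carrying a mutated RUNX1 partner site, following standard PBM protocols. Detection used an anti-ETS1 antibody (Cell Signaling Technology 14069) and an Alexa488-conjugated secondary antibody, with scanning on a GenePix 4400A. Each sequence was printed as four replicate spots. Binding level is the spot fluorescence intensity, summarised across replicates and not normalised.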

| Sequence | ETS1 binding intensity |
| --- | --- |
| ACACCACTAACAAGCACGGCCGCTTCCTGAACCTGT | 595 ± 9.2 |
| CTGGGTCGTGGCACTGAGCCAGGAAGTCCCCTGGGT | 527 |
| GGTTTTGGTAGGAAGGAAAGTGCTTTTCATAGGAAG | 389 |
| CCCTGCCGGAACACGTGCGCCTCTGGTGACCCGGCA | 534 |
| AGCCGGAGGCGGAAGGAGCAGCGCTACCGAAGCGTC | 873 |
| AGTTGCCCGAAGGTCAACACCCACTTCCCTTCAAAC | 447 |
| ATTACATCCGGGCTCCGCGACACGCCCGAACCCCAA | 25300 |
| ACTTCTCCGCCTGCAGGCCACTTCCGGCCCCTGTAA | 15100 |
| TTTTATCCTTCCTTTTTTGTTCTTTGGGGTGGAGGT | 1600 |
| CCTAGCCGACGCCCTCAATAGGCGGAAGTGGCCGGG | 1390 |
| CAGTGACAGGAAGTGGTTCAGCTGTTGTTTAGGGCT | 8150 |
| CATTTGATGGGGTTGATTACTTCCTGCTTTAATTTT | 3170 |
| GGACCTACAGCCGTGTGGGCAGCCTCAGGATGAGCT | 329 |
| CCTCAAGGGTAGGGGAAGTGCGCGGCGAGCGGCCTG | 451 |
| TTTCTGACTTCCTGTGTGCTTCAGAAACCCCAATGA | 25100 |
| TGGCATTCTCCTTCCTGTCTCCTAACGACAGCCCAC | 6380 |
| AACCCACCGGATGGAAGCTGCCACTCAGCCCCAGGA | 2920 |
| CAGTGGCTAAGGATCCGGTGTTGCAGTGATACATGA | 1670 ± 76 |
| GGGTGGGCGTTCAAAGCGCACGCGGAAGGGCGAAAG | 474 |
| GCACCAGAGGAAGCTGAGGAGGAGGTGCGCTGGCTG | 428 |
| GGGAAGAGGCGCTTGGGCTGCGGAAGGACGGGGCGC | 483 |
| GTCCTCTTTGGGGTTTCCATTTCCTTTGTGAAAGAG | 1630 |
| CCCCATCCCCCTCATAGGGACTTCCTCTTTATTTAC | 2080 |
| TCTACATATCACACATGTGAACTTCCGCCCCGCCAC | 3020 ± 600 |
| GCTTACACTTCCTCCCTGAACCCCTGCGATTTCACA | 4590 |
| CCCTGGGGCCCCACTTCCTTGCCCACGAGAAAGGAC | 2130 |
| TGCCCGAGGTTCGCGTCACACCCGGAAGCAGGGGCC | 620 |

| Sequence | ETS1 binding intensity |
| --- | --- |
| GGTTTGTAGTTTCCCCTTACTGTCTCCACTTCCTTC | 1100 |
| AAAACGCGGAAATACGGTGGCGGCGGCCCTCGGGCA | 1430 |
| GTATTTCCTTGTCTTTCCTTCTGCCGCCGTAGGCCT | 3820 |
| ATATAGAATCTTACGACAATCACTTCCTGAGTCTAT | 1850 |
| CGGGGCGCGATTCCCCCTGGGCTTCCTGAAGTAATA | 403 |
| ATATATCACCCCTTCCTTGCAAAACCCCAAGACCAA | 537 |
| CTTCAGGAAGGGCGAGGCCGGGCGCCGTGGCTCACG | 357 |
| CTGGGGAGGAAGCCTGAGGTGTGTAGTTTTGTTAAC | 528 |
| CTGTGAGGCGGAAGTGGCGGGCTCTGTGAGCGCAAG | 4890 |
| CGGCTGGCAGGAAGTGGCCACTTGAACCCCAGATGC | 9080 |
| TAAGCAGTGACCTTAAATTAATATAGGATGTCACTG | 359 |
| GTTAACAAAACTACACACCTCAGGCTTCCTCCCCAG | 393 |
| CCCTTCCCCACCCCAGTCCGCTTCCTGCCCCTCCCG | 2270 |
| CCAGACCCGGCGGAACTACCGTGCCCTCAAGGCAGC | 477 |
| AGGCGCCCAATCCGGTGCATGGTCTCTGGCGCATGC | 539 |
| CTGTGAGGTTGTCGTACTGGAAACTTCCTCCTAAAT | 500 |
| CTCTTAACTCGCTGTCCCGCCCCTTCCGGCCAGTGT | 1270 |
| GACCTGCCTTCCGGCCTCCGTCACATGACAGCACAG | 7480 |
| CATCAAGTATTTCCTCACGCAAGCAACCCCATCCAT | 1070 |
| GGGAGCGCCGTCGCAGCTCCCACTTCCGCCCTCTGG | 3870 |
| GTCCCCCGGAACCGTCTCCTCCCCCGTACGCGCCGC | 515 |
| CTCCCCAGCCCCAAACCCCTCCTTCCGGCTTTGCGC | 1940 |
| GCCGGCCCCAAAGCAGCTCCGCCCCTTCCTCTTCCA | 331 |
| CATGACATCCTCGCACAAGAAGGCGGGGGTGGGGGT | 1030 |
| GCGCGGCTCAGGAAGCGACGCGATTCAGGGAGCGAA | 607 |
| CCTGGGGTTGCCTCAGGCCTCAGGAGGAAGCTCACT | 361 |
| GCCAGGGCTGCAGCGGGAGAGGAAGCCGGGCGGCCG | 378 |

| Sequence | ETS1 binding intensity |
| --- | --- |
| GGCGGGACTTCCGGCGTCTCCCCTCGGCGGCTGCTT | 19000 |
| CTTCTTCTTGCGATTTCAATCACAGGAAACAGACGT | 601 |
| CGGCACCCTCCTTCCTCCCTGCCAAGCGCCTCCACC | 827 |
| TAACCCGGAGCGGAAGGATCCCGAAGCGTGTGCGTA | 949 |
| AGAAGTGCAGTGGAGGAGGGCCGGAACGGTGACTAT | 393 |
| GGGGAAATCGAGGTCTTAGCATCCGGCGCGCGGCGG | 3180 |
| CTCCCAACTTCCGCGACGCAGGGAGCGCCTACAAAG | 5570 |
| TAGGAGCGTCTACGGCGCGGGCGGAACCCGGGTTCG | 338 |
| GTAGGGCCGGACGGCAGGCTCCGGGATAGCGCCACG | 416 |
| GTAGGGAAATCCACTTACCCCTTCCTCATGTGTGCA | 424 |
| CCCTCTGAGACAGGATTTGCTTCCAACACAAGGCTA | 531 ± 9.9 |
| TGCGAGGTTGTCCCAGGCAGTCCCCGGAAAGCAAGG | 424 |
| CCCTCGCGCGGCCAGAGCGGCGCCGCGGAAGCGCAG | 340 |
| ACTGCCGTAAGGAAGCTGCCACCTCACGCAGTAGGG | 387 |
| TCGGGTTCCGCCAGCTTGCACCGCCCCGTAAGGTCG | 541 |
| GAATCTGATGCAAGCGCCGCCCCGGAAGTCGCGCCC | 1500 |
| TGCAATCAGGAAGCCTGCCCCTCTAGAACCCCAAAA | 498 |
| GGGAGTGGGCGATTTCCCCAGGGAAGTTTTATGGTA | 467 |
| GGTCTTATCTTGTAGTTCCCAAGGAAACAGGTCCCG | 458 ± 4.7 |
| CAAATTAGGCACAGGGTGGATAGGAAATGGCTAGGA | 498 |
| CATGTGACCCAGACACCCTACTTTACTCGGAAACAG | 361 |
| CGTACCAAAAACCTACATGGTCAGGAAGTGACTCAC | 581 |
| GCAGATCTGGTAAGCACCATCTTTCCGGCTCCCTCG | 543 |
| GTTTTAGAGCGGCCAGAGGGGCGGCTTCCGGTTTAG | 5340 |
| TGCGCTCTCATCCGGGTCCTGAGGGCGCTGGCGGAG | 2150 |
| CTCCCTAGCCCGAGGTGAGCGGGGGAAACGGCACTC | 414 |
